From patent US20220251204A1 (AstraZeneca / MedImmune, published 2022)

T1: hOX40-Fc (human recombinant protein, R&D Systems) (human, UniProt P43489 29-216)
T1 construct: also called human OX40-Fc; not shown: Fc part of the bought fusion
T1 sequence: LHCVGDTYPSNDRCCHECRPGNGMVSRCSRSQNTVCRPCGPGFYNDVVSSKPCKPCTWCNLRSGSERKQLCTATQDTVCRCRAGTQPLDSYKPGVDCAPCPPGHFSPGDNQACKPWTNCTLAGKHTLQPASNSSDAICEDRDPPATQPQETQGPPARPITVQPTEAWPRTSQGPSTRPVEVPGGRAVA

B1: BiS2 OX40Ab/PD-L1 (bispecific antibody, human IgG4 S228P, kappa)
heavy: EIVLTQSPGTLSLSPGERATLSCRASQRVSSSYLAWYQQKPGQAPRLLIYDASSRATGIPDRFSGSGSGTDFTLTISRLEPEDFAVYYCQQYGSLPWTFGCGTKVEIKGGGGSGGGGSGGGGSGGGGSEVQLVESGGGLVQPGGSLRLSCAASGFTFSRYWMSWVRQAPGKCLEWVANIKQDGSEKYYVDSVKGRFTISRDNAKNSLYLQMNSLRAEDTAVYYCAREGGWFGELAFDYWGQGTLVTVSSGGGGSGGGGSQVQLQESGPGLVKPSQTLSLTCAVYGGSFSSGYWNWIRKHPGKGLEYIGYISYNGITYHNPSLKSRITINRDTSKNQYSLQLNSVTPEDTAVYYCARYKYDYDGGHAMDYWGQGTLVTVSSASTKGPSVFPLAPCSRSTSESTAALGCLVKDYFPEPVTVSWNSGALTSGVHTFPAVLQSSGLYSLSSVVTVPSSSLGTKTYTCNVDHKPSNTKVDKRV[human IgG4 Fc with S228P (EU numbers) not shown]
light: DIQMTQSPSSLSASVGDRVTITCRASQDISNYLNWYQQKPGKAPKLLIYYTSKLHSGVPSRFSGSGSGTDYTLTISSLQPEDFATYYCQQGSALPWTFGQGTKVEIKRTVAAPSVFIFPPSDEQLKSGTASVVCLLNNFYPREAKVQWKVDNALQSGNSQESVTEQDSKDSTYSLSSTLTLSKADYEKHKVYACEVTHQGLSSPVTKSFNRGEC
notes: also called BiS2-PD-L1-OX40 HC-4P; OX40/PD-L1 BiS2
B2: BiS3 OX40Ab/PD-L1 (bispecific antibody, human IgG4 S228P, kappa)
heavy: QVQLQESGPGLVKPSQTLSLTCAVYGGSFSSGYWNWIRKHPGKGLEYIGYISYNGITYHNPSLKSRITINRDTSKNQYSLQLNSVTPEDTAVYYCARYKYDYDGGHAMDYWGQGTLVTVSSASTKGPSVFPLAPCSRSTSESTAALGCLVKDYFPEPVTVSWNSGALTSGVHTFPAVLQSSGLYSLSSVVTVPSSSLGTKTYTCNVDHKPSNTKVDKRV[human IgG4 Fc with S228P (EU numbers) not shown]GGGGSGGGGSEIVLTQSPGTLSLSPGERATLSCRASQRVSSSYLAWYQQKPGQAPRLLIYDASSRATGIPDRFSGSGSGTDFTLTISRLEPEDFAVYYCQQYGSLPWTFGCGTKVEIKGGGGSGGGGSGGGGSGGGGSEVQLVESGGGLVQPGGSLRLSCAASGFTFSRYWMSWVRQAPGKCLEWVANIKQDGSEKYYVDSVKGRFTISRDNAKNSLYLQMNSLRAEDTAVYYCAREGGWFGELAFDYWGQGTLVTVSS
light: DIQMTQSPSSLSASVGDRVTITCRASQDISNYLNWYQQKPGKAPKLLIYYTSKLHSGVPSRFSGSGSGTDYTLTISSLQPEDFATYYCQQGSALPWTFGQGTKVEIKRTVAAPSVFIFPPSDEQLKSGTASVVCLLNNFYPREAKVQWKVDNALQSGNSQESVTEQDSKDSTYSLSSTLTLSKADYEKHKVYACEVTHQGLSSPVTKSFNRGEC
notes: also called BiS3-OX40 HC-4P-PD-L1; OX40/PD-L1 BiS3

Target: T1, hOX40-Fc (human recombinant protein, …)
Test: Octet, same sensor after PD-L1-His and bispecific, then hOX40-Fc (100 nM per paragraph 346): concurrent binding

Row | Binder | binding result
1 | B1 | binds
2 | B2 | binds
